The results in this text go back to ChEMBL document CHEMBL5308541, “MAIP: An Open-Source Tool to Enrich High-Throughput Screening Output and Identify Novel, Druglike Molecules with Antimalarial Activity” (ACS Med Chem Lett, 2023).

As usually defined, the % Inhibition is the drop in the measured response relative to a control, in per cent.

About 540 (0.36%) of roughly 150,000 compounds showed an effect of 50% or more. Some of the results follow.

The experiment has as its system Plasmodium falciparum. The experiment is described as follows: Primary screen in NF54 nanoGlo assay, in single point, at 2uM, 72h; a lower Z score goes with more inhibition. Format: functional, Erythrocyte. The following applies: timepoint 72 hour.
Turning to `COc1cccc(CN2[C@@H]3CC[C@H]2CC(OC2CCN(CC(C)C)CC2)C3)n1` (stereo not given in full), the “% Inhibition” value is 1% and the Z score is -0.16.
On the same counts, the results for `CCC(CC)n1ncc(C(=O)NCc2cccc(C(C)=O)c2)c1C` are -1% and 0.12.
For `c1ccc2c(N3CC4CCNCC4C3)nccc2c1` (stereo not given), in that order: 10% and -2.17.
For `Nc1ncccc1CN1CCC(c2c[nH]c3ccc(F)cc23)CC1`, in that order: 3% and -0.58.
`FC(F)(F)c1cc(C2CC2)nc(Nc2nc3ccccc3n2CCN2CCCCC2)n1`: the “% Inhibition” value is recorded as -13% and the Z score came to 2.27.
For `Cc1nc(N2CCC3C(CCCN3C)C2)c2cc[nH]c2n1` (stereo not given), in that order: 0% and 0.04.
As to `CCN1CCN(C(=O)[C@H](C)N2CC=C(c3cncc4ccccc34)CC2)CC1`, the “% Inhibition” value is on record as 5% and the Z score is -1.
For the molecule `CC(C)C[C@H](C)N(C(=O)c1cccc2c1oc(=O)n2C)c1ccc2[nH]ccc2c1`, the “% Inhibition” value was determined as 0% and the Z score is reported as -0.01.
For `CCCOc1cncc(-c2ccc3c(c2)CNCC3)c1`, in that order: 24% and -4.72.
For `O=C(N[C@@H]1CCC[C@@H]1N1CCC(O)C1)c1c[nH]c(-c2ccccc2)n1` (stereo not given in full), in that order: -2% and 0.46.
On the same counts, the results for `CC(Cc1ccc(F)cc1)NCC1CCN(CC(F)(F)F)C1` (stereo not given) are -10% and 2.25.
`COCCN1C(=O)N(C)C(=O)C12CCNCC2`: the “% Inhibition” value is -7% and the Z score is 1.23.
For `Cc1cc(NC2CCC(C)C2)cc(N2CCN(C)CC2)c1` (stereo not given), in that order: 11% and -2.4.
Consider `Clc1c[nH]c2ncnc(N3CCNCC3)c12`, for which the “% Inhibition” value was determined as 4% and the Z score was -0.88.
On the same counts, the results for `COCCN(C)C[C@H](O)CN1CC=C(c2c[nH]c3ncccc23)CC1` are 1% and -0.18.
As for `CN(C)C1(CNC(=O)c2cccc(-c3ccc4ocnc4c3)c2)CCCCC1`, the “% Inhibition” value is listed as -5% and the Z score is recorded as 0.95.
On the same counts, the results for `c1cc(-c2ccc3c(c2)CNCC3)c2cc[nH]c2n1` are -3% and 0.52.
On the same counts, the results for `CC(C)N1CCO[C@@H](CN2CCN(C(=O)Cc3c[nH]c4ncccc34)CC2)C1` are -7% and 1.47.
For `CN1CCC2CN(c3ncnc4[nH]ccc34)CC2C1` (stereo not given), in that order: 3% and -0.54.
Regarding `COCCOc1cncc(C(=O)N[C@@H]2CCC[C@@H]2N2CCC(O)C2)c1` (stereo not given in full), the “% Inhibition” value is reported as -2% and the Z score is 0.33.
For `Cc1ccc2c(CCNCc3cccc(O)c3Cl)c[nH]c2c1`, in that order: -6% and 1.09.
On the same counts, the results for `CC(C)c1nc(N2CCC[C@@]3(CCNC3)C2)c2cc[nH]c2n1` are 2% and -0.48.
On the same counts, the results for `Cc1ccc2[nH]nc(-c3cccc4c3CCNC4)c2c1` are -3% and 0.39.
As for `CN1CCC[C@H](N2CCN(c3cncc(Br)c3)CC2)C1`, the “% Inhibition” value was -9% and the Z score is listed as 1.51.
On the same counts, the results for `C[C@@H](Cc1ccc(O)cc1)NCc1ncc[nH]1` are -3% and 0.54.
On the same counts, the results for `O=C(C(=O)N1CC(c2ccc(F)cc2)C2C1C1CCN2CC1)N1CCOCC1` (stereo not given) are 1% and -0.12.
For `O[C@@H](CNCc1ccc2c(c1)CCO2)c1ccc(F)c(F)c1`, in that order: 72% and -12.64.
As for `FC(F)COc1cc(CNC2CCN3CCCC3C2)ccn1` (stereo not given), the “% Inhibition” value is recorded as 0% and the Z score is on record as 0.1.
On the same counts, the results for `c1ccc(-c2cncnc2N2CC[C@]3(CCNC3)C2)cc1` are -14% and 2.09.
On the same counts, the results for `COc1ccc(C2CN(C(=O)N3CCN(C)CC3)C3C4CCN(CC4)C23)cc1` (stereo not given) are 3% and -0.57.
For `Cc1ccc(CNc2ncnc(N)c2Cl)c(N2CCCC2)n1`, in that order: 50% and -8.64.
In the case of `CN1CCCN(Cc2cc(C3CC3)on2)CC12CCNCC2`, the “% Inhibition” value is given as -1% and the Z score was determined as 0.15.
For `CCN(C(C)=O)c1nc(CN2CC=C(c3c[nH]c4cc(F)ccc34)CC2)cs1`, in that order: 25% and -4.44.
On the same counts, the results for `CC(C)c1noc(-c2ccc(OCC(=O)N3CCN(C4CCN(C)CC4)CC3)cc2)n1` are 1% and -0.15.
On the same counts, the results for `Cc1cc(-c2ccc(C(=O)NC3COCC3N3CCCC3)cc2)nc(N)n1` (stereo not given) are 1% and -0.19.
In the case of `Cn1ncc2c(N3C4CCNCC3CC4)nc(C3CCCC3)nc21` (stereo not given), the “% Inhibition” value was -3% and the Z score was 0.51.
As for `CC(Cc1ccc(O)cc1)NC1CCCc2c1[nH]c1ccccc21` (stereo not given), the “% Inhibition” value was 0% and the Z score is given as 0.09.
For `Cc1cccc2c(C3=CCNCC3)c[nH]c12`, in that order: 2% and -0.29.
Turning to `COc1ccc(-c2csc3ncnc(N(C)C4CCN(C[C@H]5CCOC5)CC4)c23)cc1`, the “% Inhibition” value is given as -12% and the Z score turned out to be 2.3.
On the same counts, the results for `COc1ccc2[nH]cc(C3CCN([C@H]4CCN(C5CCOCC5)C4=O)CC3)c2c1` are -3% and 0.53.
With `N[C@H]1CCCCCN(Cc2[nH]nc3ccccc23)C1`, the “% Inhibition” value was 2% and the Z score is listed as -0.3.
For `Fc1ccc2c(CCNCc3cc(Cl)c4c(c3)OCCCO4)c[nH]c2c1`, in that order: -5% and 0.78.
On the same counts, the results for `O=C(NC1COCC1N1CCCCC1)c1cc(-c2ccsc2)[nH]n1` (stereo not given) are -6% and 1.23.
On the same counts, the results for `CN(c1nc2nonc2nc1N1CCOCC1)C1CC(C)(C)NC(C)(C)C1` are -3% and 0.43.
Take `CCc1nnc(NCc2ccc(C)nc2N2CCCC2)nc1CC`: the “% Inhibition” value is given as -19% and the Z score was determined as 2.94.
For `CO[C@H]1C[C@@H](CN2CCCC2)N(C(=O)Cc2ccc3[nH]ncc3c2)C1`, in that order: 10% and -1.8.
Take `O=C1[C@@H](n2c(-c3cnccn3)noc2=O)CCN1CC(F)(F)F`: the “% Inhibition” value was -10% and the Z score worked out at 2.16.
Turning to `COC(=O)c1cc(S(=O)(=O)N(C)[C@H]2CN3CCC2CC3)ccc1C`, the “% Inhibition” value is recorded as 20% and the Z score was -3.41.
With `Cc1[nH]c2ccccc2c1C1=CCNCC1`, the “% Inhibition” value is 10% and the Z score is given as -1.92.
On the same counts, the results for `Cc1ccccc1OCCCNC(=O)CC1CC2CCC(C1)N2` (stereo not given) are 2% and -0.46.
For `CCc1cc(N(C)C2CCN(C[C@H]3CCOC3)CC2)n2c(nc3ccccc32)c1C#N`, in that order: -9% and 1.54.
For `O=C1CNCCN1C1CCCN(CC2CC3CCC2N3)C1` (stereo not given), in that order: -7% and 1.41.
For `Fc1ccc(N2CC[C@H](CN3CCC(c4c[nH]c5ccccc45)(c4c[nH]c5ccccc45)CC3)C2)cc1`, the “% Inhibition” value was found to be 95% and the Z score is on record as -18.87.
For `Cc1ccc([C@@H](O)CNCc2cc(O)cc(Cl)c2)cc1`, in that order: 7% and -1.59.
For `CNC(=O)c1cc2cc(NC(=O)c3ccc(-c4noc(=O)[nH]4)cc3)ccc2[nH]1`, in that order: 16% and -3.35.
For `Cc1ncsc1CCn1c(-c2ccncc2)noc1=O`, in that order: 1% and -0.2.
As for `c1cc2[nH]ncc2cc1N[C@H]1CN2CCC1CC2`, the “% Inhibition” value is listed as -12% and the Z score came out at 2.17.
For the molecule `O=C(OCCn1cncn1)C1CC12CCCc1ccccc12` (stereo not given), the “% Inhibition” value was -4% and the Z score is 0.82.
Consider `CC(C)N1CCN([C@H]2CCN(C(=O)Cc3cccc4cnccc34)C2)CC1`, for which the “% Inhibition” value is -4% and the Z score turned out to be 0.62.
For `COC1CCN(C2CCCC2NC(=O)c2ncnc3[nH]ccc23)C1` (stereo not given), in that order: -5% and 0.93.
For `CCOC(=O)c1cnc(N(C)C2CCN(OC)CC2)nc1C`, in that order: -17% and 3.65.
On the same counts, the results for `CCn1nc(C)c(-c2cccc(C(=O)NC3COCC3N3CCCC3)c2)c1C` (stereo not given) are -2% and 0.49.
For `CN1CCN(c2ccc(NCC3(C)CCOCC3)nc2)CC1`, the “% Inhibition” value is on record as -9% and the Z score worked out at 1.55.
`C[C@H]1C(=O)N(C)CCN1C(=O)c1cn(Cc2ccccc2)c2ccccc12`: the “% Inhibition” value is reported as -8% and the Z score stood at 1.33.
On the same counts, the results for `CN(C)C(=O)c1ccc(CN2CC=C(c3c[nH]c4ccccc34)CC2)[nH]1` are -6% and 1.01.
On the same counts, the results for `OC1CCC(NCc2c[nH]c3ccc(Br)cc23)CC1` (stereo not given) are 5% and -0.95.
For `CCOC1COCC1n1cc(C(=O)Nc2c(F)cccc2F)nn1` (stereo not given), the “% Inhibition” value worked out at 8% and the Z score is -1.19.
On the same counts, the results for `Cc1ccc(-c2cc(C(=O)NC3CCCC3N(C)C)n[nH]2)cc1` (stereo not given) are -3% and 0.51.
For `FC(F)(F)c1ccc2c(N3CCN4CCOC[C@@H]4C3)nccc2c1`, the “% Inhibition” value is -4% and the Z score is listed as 0.65.
For `COC[C@H]1CCCN1C[C@H]1CN2CC[C@H]1C[C@@H]2CNC(=O)c1ccc(C(F)(F)F)cc1`, in that order: 16% and -2.44.
On the same counts, the results for `CC(C)Nc1cc(N2CCN([C@H]3CN4CCC3CC4)CC2)ncn1` are -7% and 1.06.
For `COc1ccc(CCNCc2ccc3[nH]cnc3c2)c(Cl)c1`, in that order: 24% and -5.08.
On to `O=c1[nH]c2ccc(S(=O)(=O)N3CC4(CCCC4)c4ccccc43)cc2o1`, for which the “% Inhibition” value is listed as -1% and the Z score turned out to be 0.28.
On the same counts, the results for `Brc1cccc2[nH]cc(CCNC3CCN([C@H]4CCOC4)CC3)c12` are 5% and -0.89.
With `CNC(=O)Oc1ccc2ncccc2c1`, the “% Inhibition” value is recorded as -8% and the Z score turned out to be 1.43.
For `COc1cncc(-c2ccc(C(=O)NC3COCC3N3CCCCC3)cc2)c1` (stereo not given), in that order: -8% and 1.19.
On the same counts, the results for `O=C(Nc1ccc2[nH]cc(CCN3CCCC3)c2c1)c1c(F)c(F)c(F)c(F)c1F` are -2% and 0.31.
For `COc1cc(C)nc(N2CC3COCC3(CN3CCCC3)C2)n1` (stereo not given), the “% Inhibition” value is reported as 0% and the Z score was -0.02.
On the same counts, the results for `O=C(N[C@H]1COC[C@@H]1N1CCCCC1)c1cnn2cc(CCO)cnc12` are -3% and 0.59.
As to `Cc1ncc2c(c1-c1noc(C3CCN(C)CC3)n1)CCN(c1cnccn1)C2`, the “% Inhibition” value is -3% and the Z score stood at 0.59.
On the same counts, the results for `C1CCC(CCN2CC[C@@]3(CCCN3)C2)C1` are -5% and 0.93.
For `Fc1ccc(CCN2CCC(Nc3ccc4c(cnn4C(F)F)c3)CC2)cc1`, in that order: -2% and 0.36.
For `COc1ccc(CCN2CCC(CNC(=O)c3nc(Cn4c(=O)oc5ccccc54)no3)CC2)cc1`, in that order: 1% and -0.19.
For `CN1CCC2C(CCCN2Cc2ncc(Cl)s2)C1` (stereo not given), the “% Inhibition” value is listed as 0% and the Z score worked out at 0.05.
In the case of `CN1C2CCCC1CC(Nc1nnc(-c3ccccn3)o1)C2` (stereo not given), the “% Inhibition” value was -6% and the Z score is reported as 1.01.
